Reference: PubChem BioAssay (NCATS)
Some of the results follow. These are further read-outs of the screen, such as a control signal, another cell line or another target. No call is given for them. Most of these compounds were active or inconclusive in the main read-out, so they are no random draw. Words in brackets tell the shape of the fitted curve; partial curves, single points and poor fits give uncertain potencies.

Test: Cell-based coincidence reporter assay to measure PMP22 gene transcription in S16 Pmp22-F2sN cells - Confirmatory screen (AID 1508646)
Conditions: S16 Schwann cells Pmp22-F2sN, dual luciferase, 24 h
Outline: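 Coincidence reporter read as sequential FLuc then NLuc luminescence (Nano-Glo Dual-Luciferase, 10 min each). Engineered S16 Pmp22-F2sN Schwann cells, 500-1,000 per well in DMEM/10% FBS, were exposed to compounds for 24 h, 37C.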

[1] = measured here: FLuc reporter channel
[2] = measured here: NLuc reporter channel
Tags describe the fitted curve by direction and shape.

## Cc1cc(N2CCN(c3cccc(C(F)(F)F)c3)CC2)n2nc(-c3ccccc3C)nc2n1
[1]
  AC50: 43.2 µM [falling, single point]
[2]
  AC50: 34.3 µM [falling, partial curve, poor fit]

## CCOC(=O)c1cc2c(=O)n3ccccc3nc2n(CC(C)C)c1=NC(=O)COc1ccc(Cl)cc1
[1]
  AC50: 24.3 µM [falling, partial curve]
[2]
  AC50: 24.3 µM [falling, partial curve]

## O=C(CCS(=O)(=O)c1ccc(Br)s1)Nc1cc(C(F)(F)F)cc(C(F)(F)F)c1
[1]
  AC50: 24.3 µM [falling, partial curve]
[2]
  AC50: 21.7 µM [falling, partial curve]

## Cc1cc(C)c(NC(=O)Cn2c(=O)n(Cc3ccc(C(=O)NCc4ccc5c(c4)OCO5)cc3)c(=O)c3ccccc32)c(C)c1
[1]
  AC50: 6.85 µM [falling, full curve]
[2]
  AC50: 10.9 µM [falling, partial curve]

## CCCCCS(=O)(=O)c1oc(-c2cccs2)nc1S(=O)(=O)c1ccc(C)cc1
[1]
  AC50: 17.2 µM [falling, partial curve]
[2]
  AC50: 17.2 µM [falling, partial curve]

## CCCn1c(=N)c(C(=O)NCc2ccccc2)cc2c(=O)n3cccc(C)c3nc21
[1]
  AC50: 24.3 µM [falling, partial curve, poor fit]
[2]
  AC50: 27.3 µM [falling, partial curve, poor fit]

## CCOC(=O)N1CCN(Cc2nc3cc(NC(=O)CC)ccc3n2C(C)C)CC1
[1]
  AC50: 3.43 µM [falling, full curve, poor fit]
[2]
  AC50: 5.44 µM [falling, full curve]

## CCOc1ccc2nc(NC(=O)c3nc(SC(C)C)ncc3Cl)sc2c1
[1]
  AC50: 30.6 µM [falling, partial curve]
[2]
  AC50: 34.3 µM [falling, partial curve]

## Cc1ccc(Cl)cc1NC(=O)c1oc2ccc(S(=O)(=O)N3CCC4(CC3)OCCO4)cc2c1C
[1]
  AC50: 21.7 µM [falling, partial curve, poor fit]
[2]
  AC50: 21.7 µM [falling, partial curve, poor fit]

## Clc1ccc(-c2noc3ncnc(NC4CCCCC4)c23)cc1
[1]
  AC50: 13.7 µM [falling, full curve, poor fit]
[2]
  AC50: 12.2 µM [falling, full curve, poor fit]

## Cc1ncc(CO)c2c1Oc1nc(-c3ccccc3)nc(SCC(=O)N3CCCCC3)c1C2
[1]
  AC50: 21.7 µM [falling, partial curve]
[2]
  AC50: 24.3 µM [falling, partial curve]

## CC1=Nc2cc(C(=O)NCc3ccccc3Cl)ccc2Sc2c(C)ccc(C)c21
[1]
  AC50: 2.17 µM [falling, full curve]
[2]
  AC50: 2.73 µM [falling, full curve]

## Cc1ccc(CCNC(=O)C2CCN(c3nnc(-n4cccc4CNc4ccc(C)cc4)s3)CC2)cc1
[1]
  AC50: 10.9 µM [falling, partial curve]
[2]
  AC50: 19.3 µM [falling, partial curve]

## CCc1ccc(-c2nc(CN3CCC(C(=O)NCCc4ccc(Cl)cc4)CC3)c(C)o2)cc1
[1]
  AC50: 24.3 µM [falling, partial curve]
[2]
  AC50: 30.6 µM [falling, partial curve]

## CCCCS(=O)(=O)c1nc(-c2ccc(Br)cc2)cc(-c2ccccc2)c1C#N
[1]
  AC50: 7.69 µM [falling, full curve]
[2]
  AC50: 10.9 µM [falling, full curve]

## Cc1c(Cl)cccc1NC(=O)c1oc2ccc(S(=O)(=O)N3CCC4(CC3)OCCO4)cc2c1C
[1]
  AC50: 7.69 µM [falling, full curve, poor fit]
[2]
  AC50: 7.69 µM [falling, full curve, poor fit]

## Cc1ccc(Nc2c3c(nc4ccccc24)CCC3)cc1F
[1]
  AC50: 24.3 µM [falling, partial curve]
[2]
  AC50: 27.3 µM [falling, partial curve, poor fit]

## O=C(Cn1c(=O)n(Cc2ccccc2)c(=O)c2sc3ccccc3c21)Nc1ccc(F)cc1
[1]
  AC50: 15.3 µM [falling, partial curve, poor fit]
[2]
  AC50: 21.7 µM [falling, partial curve]

## CCCn1c2ccccc2c2cnn(CC(=O)NCC3CCN(Cc4ccc(C)cc4)CC3)c(=O)c21
[1]
  AC50: 24.3 µM [falling, partial curve]
[2]
  AC50: 24.3 µM [falling, partial curve]

## CCOc1ccc(NC(=O)CSc2oc(-c3ccccc3)nc2S(=O)(=O)c2ccc(Cl)cc2)cc1
[1]
  AC50: 19.3 µM [falling, partial curve]
[2]
  AC50: 19.3 µM [falling, partial curve]

## Clc1cccc(-c2noc3ncnc(NC4CCCCC4)c23)c1
[1]
  AC50: 7.69 µM [falling, partial curve]
[2]
  AC50: 8.62 µM [falling, partial curve]

## O=S(=O)(c1cccc(Cl)c1)c1nnn2c1nc(NC1CCCCCC1)c1sccc12
[1]
  AC50: 19.3 µM [falling, partial curve, poor fit]
[2]
  AC50: 19.3 µM [falling, partial curve, poor fit]

## CCOC(=O)C1CCN(C(=O)CSc2c3c(nc4ccc(Cl)cc24)CCCC3)CC1
[1]
  AC50: 19.3 µM [falling, partial curve]
[2]
  AC50: 15.3 µM [falling, partial curve]

## COc1ccc(Cl)cc1NC(=O)CCS(=O)(=O)c1nc(-c2cccs2)cc(C(F)(F)F)n1
[1]
  AC50: 6.85 µM [falling, full curve]
[2]
  AC50: 10.9 µM [falling, partial curve]

## Cc1oc(-c2ccc(Cl)cc2)nc1CN1CCCC(C(=O)NCc2ccccc2)C1 (configuration not stated)
[1]
  AC50: 21.7 µM [falling, partial curve, poor fit]
[2]
  AC50: 43.2 µM [falling, partial curve, poor fit]

## CCN(CC)CCn1c2c(c(SCC(=O)Nc3cccc(C(F)(F)F)c3)nc1=O)CCC2
[1]
  AC50: 21.7 µM [falling, partial curve, poor fit]
[2]
  AC50: 21.7 µM [falling, partial curve, poor fit]

## CCCN1C(=O)C(O)(CC(=O)c2ccc(CC)cc2)c2cc(Br)ccc21 (configuration not stated)
[1]
  AC50: 24.3 µM [falling, partial curve, poor fit]
[2]
  AC50: 21.7 µM [falling, partial curve, poor fit]

## COc1ccc(-c2noc(CSc3nnc(-c4ccncc4)n3-c3ccc(C)cc3)n2)cc1
[1]
  AC50: 4.32 µM [falling, full curve]
[2]
  AC50: 3.06 µM [falling, full curve]

## CCCNC(=O)c1ccc2c(c1)N=C(C)c1c(C)ccc(C)c1S2
[1]
  AC50: 2.43 µM [falling, full curve, poor fit]
[2]
  AC50: 2.17 µM [falling, full curve]

## COc1ccccc1NC(=O)Cn1c(=O)n(-c2cccc(Cl)c2)c(=O)c2sc3ccccc3c21
[1]
  AC50: 6.11 µM [falling, full curve]
[2]
  AC50: 6.85 µM [falling, full curve]

## CC(C)OCCCNC(=O)c1ccc(-n2c(-c3ccccc3)cc3c2CCCC3)cc1
[1]
  AC50: 21.7 µM [falling, partial curve, poor fit]
[2]
  AC50: 24.3 µM [falling, partial curve, poor fit]

## CC(=O)Nc1cccc(NC(=O)C(=O)NCCc2sc(-c3ccccc3)nc2C)c1
[1]
  AC50: 3.43 µM [falling, full curve]
[2]
  AC50: 3.85 µM [falling, full curve]

## CCCN(CCC)CCCNC(=O)c1cc2c(=O)oc3ccc(C)cc3c2s1
[1]
  AC50: 10.9 µM [falling, partial curve]
[2]
  AC50: 21.7 µM [falling, partial curve]

## COc1cc(NS(=O)(=O)c2cc(Br)cc3c2N(C(=O)C2CC2)CC3)cc(OC)c1
[1]
  AC50: 17.2 µM [falling, partial curve]
[2]
  AC50: 19.3 µM [falling, partial curve]

## Cc1cccc(C)c1Nc1c(-c2ccsc2)nc2ccccn12
[1]
  AC50: 24.3 µM [falling, single point]
[2]
  AC50: 1.72 µM [rising, full curve, poor fit]

## Cc1ccc(Cl)cc1N1CCN(C(=O)c2ccc(C)c(-n3c(C)nc4cccnc43)c2)CC1
[1]
  AC50: 27.3 µM [falling, partial curve]
[2]
  AC50: 43.2 µM [falling, single point]

## Cn1c(=O)oc2cc(S(=O)(=O)N3CCCC(C(=O)N4CCN(c5ccc(Cl)cc5)CC4)C3)ccc21 (configuration not stated)
[1]
  AC50: 10.9 µM [falling, full curve]
[2]
  AC50: 19.3 µM [falling, partial curve]

## COc1ccccc1CNC(=O)CCCCn1c(=O)c2ccccc2n(Cc2ccccc2C)c1=O
[1]
  AC50: 27.3 µM [falling, partial curve, poor fit]
[2]
  AC50: 24.3 µM [falling, partial curve]

## Cc1ccc(-n2c(SCc3nc(-c4ccc(Cl)cc4)no3)nnc2-c2ccncc2)cc1
[1]
  AC50: 13.7 µM [falling, full curve]
[2]
  AC50: 12.2 µM [falling, single point]

## COc1ccc(C)cc1Nc1c2c(nc3ccccc13)CCC2
[1]
  AC50: 3.85 µM [falling, full curve, poor fit]
[2]
  AC50: 2.17 µM [falling, full curve, poor fit]

## O=C(Nc1cccc(-c2nc3ccccc3o2)c1)C(F)(F)F
[1]
  AC50: 1.09 µM [rising, full curve]
[2]
  AC50: 38.5 µM [rising, single point]
